Measurements taken from article PMC10442854 (ACS chemical biology, 2023).

B1: O-GlcNAc modified HSP27 P182L (gT184) (natural protein)
chain: not shown
modifications: O-GlcNAc on threonine 184
B2: O-GlcNAc modified HSP27 P182S (gT184) (natural protein)
chain: not shown
modifications: O-GlcNAc on threonine 184

Target: the molecule itself
Test: SEC-MALS; refolded HSP27 proteins at 1.5 mg/mL in 1x DPBS, 2 mM DTT; 150 ug injected; Shodex 804 column; mobile phase degassed 1x DPBS, 0.5 mL/min; self-association into oligomers

Protein	binding result
B1	binds
B2	binds
